Assay results from article PMC6664820, “Novel natural and synthetic inhibitors of solute carriers SGLT1 and SGLT2” (Pharmacology Research & Perspectives, 2019).
The campaign covered roughly 1,900 compounds. About 40 (2%) showed an effect of 50% or more. The list shows a part of the results.

target: human SGLT1 (hSGLT1) (human, UniProt P13866); experiment: primary screen, percent of control activity; higher = less effect of the substance; parameters: single well; settings: 50 µM
Experimental: Two days before the assay, CHO‐wild type and CHO‐hSGLT1 cells were seeded in maintenance medium at 25 000 cells/well in clear‐bottom black 96‐well cell culture plates. Before the assay, cells were washed 3 times with 150 μL/well D‐glucose free DMEM with 0.3% (w/v) BSA. Library compounds at 50 μmol/L (singlicate) prepared in D‐glucose free DMEM with 160 μmol/L 1‐NBD‐glucose and 0.3% (w/v) BSA and negative controls (triplicate) were added at 100 μL/well and placed in a humidified incubator at 37°C with 5% CO2 for 90 minutes. Next, cells were washed 3 times with DMEM with 0.3% (w/v) BSA (150 μL/well). Care was taken to remove all medium after the last wash. Finally, 1‐NBD‐glucose was extracted from the cells by adding 10 μL/well isopropanol and orbital shaking for 5 minutes at 600 rpm, followed by incubation in the dark for 30 minutes. Fluorescence was measured on a Tecan Infinite M200 Microplate Reader (Tecan, Männedorf, Switzerland) with excitation at 445 nm and emission at 525 nm. The amount of 1‐NBD‐glucose taken up by the CHO‐wild type or CHO‐hSGLT1 cells in the presence or absence of test compounds was interpolated from 1‐NBD‐glucose calibration standards. The background uptake by CHO‐wild type was subtracted from the uptake by CHO‐hSGLT1. Background corrected uptake with test compound was expressed as a percentage of corrected uptake without test compound.

Sequence of human SGLT1 (hSGLT1) (P13866 whole entry, looked up): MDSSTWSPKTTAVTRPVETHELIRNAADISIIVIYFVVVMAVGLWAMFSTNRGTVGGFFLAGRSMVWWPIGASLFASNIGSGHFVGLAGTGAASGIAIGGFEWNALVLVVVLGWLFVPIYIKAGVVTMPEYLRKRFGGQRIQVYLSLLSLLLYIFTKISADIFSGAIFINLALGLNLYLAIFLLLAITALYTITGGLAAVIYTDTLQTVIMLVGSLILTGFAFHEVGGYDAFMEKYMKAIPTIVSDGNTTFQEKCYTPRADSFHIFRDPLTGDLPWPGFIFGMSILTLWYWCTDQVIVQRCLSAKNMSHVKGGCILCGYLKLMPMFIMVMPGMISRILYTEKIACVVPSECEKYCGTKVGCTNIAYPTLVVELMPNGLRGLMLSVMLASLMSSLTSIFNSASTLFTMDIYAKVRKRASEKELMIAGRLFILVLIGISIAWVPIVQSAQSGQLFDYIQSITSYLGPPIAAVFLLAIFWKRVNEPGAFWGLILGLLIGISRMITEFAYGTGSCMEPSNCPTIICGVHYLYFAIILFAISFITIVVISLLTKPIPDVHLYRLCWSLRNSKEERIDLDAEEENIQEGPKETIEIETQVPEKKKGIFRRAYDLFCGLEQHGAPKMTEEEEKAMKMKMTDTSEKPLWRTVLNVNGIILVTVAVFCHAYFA

SMILES | NORMALIZED SGLT1 ACTIVITY (%)
COc1cc2c(cc1O)C[C@H]1c3c(cc(O)c(OC)c3-2)CCN1C | 135%
CN1[C@H]2C[C@H](OC(=O)[C@H](CO)c3ccccc3)C[C@@H]1[C@@H](O)C2 | 120%
CO[C@H]1C[C@H](O[C@H]2CC[C@@]3(C)[C@H](CC[C@@H]4[C@@H]3CC[C@]3(C)[C@@H](C5=CC(=O)OC5)[C@@H](OC(C)=O)C[C@]43O)C2)O[C@@H](C)[C@@H]1O | 70%
CO[C@H]1[C@H](O)[C@H](O[C@H]2CC[C@@]3(C=O)[C@H](CC[C@@H]4[C@@H]3CC[C@]3(C)[C@@H](C5=CC(=O)OC5)CC[C@]43O)C2)O[C@@H](C)[C@@H]1O | 111%
C[C@@H]1O[C@@H](O[C@H]2CC[C@]3(C=O)[C@H]4CC[C@]5(C)[C@@H](C6=CC(=O)OC6)CC[C@]5(O)[C@@H]4CC[C@]3(O)C2)[C@H](O)[C@H](O)[C@H]1O | 103%
O=c1cccc2n1C[C@@H]1CNC[C@H]2C1 | 107%
CN1C[C@H](CNC(=O)OCc2ccccc2)C[C@@H]2c3cccc4c3c(cn4C)C[C@H]21 | 93%
CC(=O)O[C@H]1CC[C@@]2(C)[C@H](CC[C@@H]3[C@@H]2CC[C@]2(C)[C@@H](C4=CC(=O)OC4)[C@@H](OC(C)=O)C[C@]32O)C1 | 124%
O=C1C[C@@H]2OCC=C3CN4CC[C@]56c7ccccc7N1[C@H]5[C@H]2[C@H]3C[C@H]46 | 72%
C#C[C@]1(O)CC[C@H]2[C@@H]3CCC4=CC(=O)CC[C@]4(C)[C@H]3CC[C@@]21C | 87%
C[C@]12CC[C@H]3[C@@H](CC[C@]4(O)C[C@@H](O)CC[C@]34C=O)[C@@]1(O)CC[C@@H]2C1=CC(=O)OC1 | 87%
CC[C@H]1[C@@H]2C[C@H]3[C@@H]4N(C)c5ccccc5[C@]45C[C@@H]([C@H]2[C@H]5O)N3[C@@H]1O | 166%
CC(C)C[C@H](CN)CC(=O)O | 115%
CO[C@H]1[C@H](O)[C@H](O[C@H]2CC[C@@]3(C)[C@H](CC[C@@H]4[C@@H]3CC[C@]3(C)[C@@H](C5=CC(=O)OC5)CC[C@]43O)C2)O[C@@H](C)[C@@H]1O | 99%
C[C@]12CC[C@H](Cl)C[C@@H]1CC[C@@H]1[C@@H]2CC[C@]2(C)C(=O)CC[C@@H]12 | 161%
CCN1C[C@]2(COC)[C@H](O)C[C@H](OC)[C@@]34[C@@H]5C[C@@]6(O)[C@H](OC(=O)c7ccccc7)[C@@H]5[C@@](OC(C)=O)([C@@H]([C@H](OC)[C@H]23)[C@@H]14)[C@@H](O)[C@@H]6OC | 80%
CO[C@H]1C[C@H](O[C@H]2CC[C@]3(C=O)[C@H]4CC[C@]5(C)[C@@H](C6=CC(=O)OC6)CC[C@]5(O)[C@@H]4CC[C@]3(O)C2)O[C@H](C)[C@H]1O | 105%
C[C@@H]1O[C@@H](O[C@H]2C[C@@H](O)[C@]3(CO)[C@H]4[C@H](O)C[C@]5(C)[C@@H](C6=CC(=O)OC6)CC[C@]5(O)[C@@H]4CC[C@]3(O)C2)[C@H](O)[C@H](O)[C@H]1O | 80%
[N-]=[N+]=CC(=O)OC[C@H](N)C(=O)O | 98%
COc1cc2c(cc1OC)[C@@]13CCN4CC5=CCO[C@H]6CC(=O)N2[C@H]1[C@H]6[C@H]5C[C@H]43 | 120%
CC(=O)O[C@H]1C[C@H](O[C@H]2[C@@H](O)C[C@H](O[C@H]3[C@@H](O)C[C@H](O[C@H]4CC[C@@]5(C)[C@H](CC[C@@H]6[C@@H]5C[C@@H](O)[C@]5(C)[C@@H](C7=CC(=O)OC7)CC[C@]65O)C4)O[C@@H]3C)O[C@@H]2C)O[C@H](C)[C@H]1O[C@@H]1O[C@H](CO)[C@@H](O)[C@H](O)[C@H]1O | 110%
